# The supplement of paper PMC8728848
# The other results are listed elsewhere or left out.
# How the values were obtained:
# Assay in all cases: glycan array binding signal (z-score within array); higher = stronger binding
# Conditions in all cases: glycan notation: IUPAC condensed, linker removed
# Fuc(a1-2)Gal = target: Fuc(a1-2)Gal
# Summary of the method: (§1)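 Arrays were curated from the Consortium for Functional Glycomics database, 3228 in total, and kept only where the protein sequence was available. Binding is expressed as a within-array Z-score. This score was averaged across arrays of the same protein sequence at different concentrations or buffers and across linkers, and negative values can be read as non-binding.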
# Fuc(a1-2)Gal(b1-3)GalNAc = target: Fuc(a1-2)Gal(b1-3)GalNAc
# Summary of the method: as §1
# [1] = target: Fuc(a1-2)Gal(b1-3)GalNAc(a1-3)[Fuc(a1-2)]Gal(b1-4)Glc
# Summary of the method: as §1
# [2] = target: Fuc(a1-2)Gal(b1-3)GalNAc(a1-3)[Fuc(a1-2)]Gal(b1-4)GlcNAc
# Summary of the method: as §1
# [3] = target: Fuc(a1-2)Gal(b1-3)GalNAc(b1-3)Gal
# Summary of the method: as §1
# [4] = target: Fuc(a1-2)Gal(b1-3)GalNAc(b1-3)Gal(a1-4)Gal(b1-4)Glc
# Summary of the method: as §1
# [5] = target: Fuc(a1-2)Gal(b1-3)GalNAc(b1-4)[Neu5Ac(a2-3)]Gal(b1-4)Glc
# Summary of the method: as §1
# Fuc(a1-2)Gal(b1-3)GlcNAc = target: Fuc(a1-2)Gal(b1-3)GlcNAc
# Summary of the method: as §1
# [6] = target: Fuc(a1-2)Gal(b1-3)GlcNAc(b1-2)Man(a1-3)[Fuc(a1-2)Gal(b1-3)GlcNAc(b1-2)Man(a1-6)]Man(b1-4)GlcNAc(b1-4)GlcNAc
# Summary of the method: as §1
# [7] = target: Fuc(a1-2)Gal(b1-3)GlcNAc(b1-2)Man(a1-3)[Fuc(a1-2)Gal(b1-3)GlcNAc(b1-2)Man(a1-6)]Man(b1-4)GlcNAc(b1-4)[Fuc(a1-6)]GlcNAc
# Summary of the method: as §1
# [8] = target: Fuc(a1-2)Gal(b1-3)GlcNAc(b1-3)Gal(b1-4)Glc
# Summary of the method: as §1
# [9] = target: Fuc(a1-2)Gal(b1-3)GlcNAc(b1-3)GalNAc
# Summary of the method: as §1
# [10] = target: Fuc(a1-2)Gal(b1-3)GlcNAc(b1-3)[Fuc(a1-2)Gal(b1-3)GlcNAc(b1-6)]GalNAc
# Summary of the method: as §1
# [11] = target: Fuc(a1-2)Gal(b1-3)GlcNAc(b1-3)[Gal(b1-4)GlcNAc(b1-6)]Gal(b1-4)Glc
# Summary of the method: as §1
# [12] = target: Fuc(a1-2)Gal(b1-3)GlcNAc(b1-3)[Neu5Ac(a2-6)Gal(b1-4)GlcNAc(b1-6)]Gal(b1-4)Glc
# Summary of the method: as §1
# [13] = target: Fuc(a1-2)Gal(b1-3)GlcNAc6S
# Summary of the method: as §1
# [14] = target: Fuc(a1-2)Gal(b1-3)[Fuc(a1-4)]GlcNAc
# Summary of the method: as §1
# [15] = target: Fuc(a1-2)Gal(b1-3)[Fuc(a1-4)]GlcNAc(b1-2)Man(a1-3)[Fuc(a1-2)Gal(b1-3)[Fuc(a1-4)]GlcNAc(b1-2)Man(a1-3)]Man(b1-4)GlcNAc(b1-4)GlcNAc
# Summary of the method: as §1
# [16] = target: Fuc(a1-2)Gal(b1-3)[Fuc(a1-4)]GlcNAc(b1-2)Man(a1-3)[Fuc(a1-2)Gal(b1-3)[Fuc(a1-4)]GlcNAc(b1-2)Man(a1-6)]Man(b1-4)GlcNAc(b1-4)[Fuc(a1-6)]GlcNAc(b1-4)[Fuc(a1-6)]GlcNAc
# Summary of the method: as §1
# [17] = target: Fuc(a1-2)Gal(b1-3)[Fuc(a1-4)]GlcNAc(b1-3)[Fuc(a1-3)[Gal(b1-4)]GlcNAc(b1-6)]Gal(b1-4)Glc
# Summary of the method: as §1
# [18] = target: Fuc(a1-2)Gal(b1-3)[Fuc(a1-4)]GlcNAc(b1-3)[Gal(b1-4)GlcNAc(b1-6)]Gal(b1-4)Glc
# Summary of the method: as §1
# [19] = target: Fuc(a1-2)Gal(b1-4)Fuc(a1-3)]GlcNAc(b1-2)Man(a1-3)[Fuc(a1-2)Gal(b1-4)[Fuc(a1-3)]GlcNAc(b1-2)Man(a1-6)]Man(b1-4)GlcNAc(b1-4)GlcNAc
# Summary of the method: as §1
# Fuc(a1-2)Gal(b1-4)Glc = target: Fuc(a1-2)Gal(b1-4)Glc
# Summary of the method: as §1
# Fuc(a1-2)Gal(b1-4)Glc6S = target: Fuc(a1-2)Gal(b1-4)Glc6S
# Summary of the method: as §1
# Fuc(a1-2)Gal(b1-4)GlcNAc = target: Fuc(a1-2)Gal(b1-4)GlcNAc
# Summary of the method: as §1
# [20] = target: Fuc(a1-2)Gal(b1-4)GlcNAc(b1-2)Man
# Summary of the method: as §1
# [21] = target: Fuc(a1-2)Gal(b1-4)GlcNAc(b1-2)Man(a1-3)[Fuc(a1-2)Gal(b1-4)GlcNAc(b1-2)Man(a1-6)]Man(b1-4)GlcNAc(b1-4)GlcNAc
# Summary of the method: as §1
# [22] = target: Fuc(a1-2)Gal(b1-4)GlcNAc(b1-2)Man(a1-3)[Fuc(a1-2)Gal(b1-4)GlcNAc(b1-2)Man(a1-6)]Man(b1-4)GlcNAc(b1-4)[Fuc(a1-6)]GlcNAc
# Summary of the method: as §1
# [23] = target: Fuc(a1-2)Gal(b1-4)GlcNAc(b1-2)[Fuc(a1-2)Gal(b1-4)GlcNAc(b1-4)]Man(a1-3)[Fuc(a1-2)Gal(b1-4)GlcNAc(b1-2)Man(a1-6)]Man(b1-4)GlcNAc(b1-4)GlcNAc
# Summary of the method: as §1
# [24] = target: Fuc(a1-2)Gal(b1-4)GlcNAc(b1-3)Gal(b1-4)GlcNAc
# Summary of the method: as §1
# [25] = target: Fuc(a1-2)Gal(b1-4)GlcNAc(b1-3)Gal(b1-4)GlcNAc(b1-2)Man(a1-3)[Fuc(a1-2)Gal(b1-4)GlcNAc(b1-3)Gal(b1-4)GlcNAc(b1-2)Man(a1-6)]Man(b1-4)GlcNAc(b1-4)GlcNAc
# Summary of the method: as §1
# [26] = target: Fuc(a1-2)Gal(b1-4)GlcNAc(b1-3)Gal(b1-4)GlcNAc(b1-3)Gal(b1-4)GlcNAc
# Summary of the method: as §1
# [27] = target: Fuc(a1-2)Gal(b1-4)GlcNAc(b1-3)GalNAc
# Summary of the method: as §1
# [28] = target: Fuc(a1-2)Gal(b1-4)GlcNAc(b1-3)[Fuc(a1-2)Gal(b1-4)GlcNAc(b1-6)]GalNAc
# Summary of the method: as §1
# [29] = target: Fuc(a1-2)Gal(b1-4)GlcNAc(b1-3)[Fuc(a1-3)[Gal(b1-4)]GlcNAc(b1-6)]Gal(b1-4)Glc
# Summary of the method: as §1
# [30] = target: Fuc(a1-2)Gal(b1-4)GlcNAc(b1-6)GalNAc
# Summary of the method: as §1
# [31] = target: Fuc(a1-2)Gal(b1-4)GlcNAc6S
# Summary of the method: as §1
binder,measurement,setting,value
"Dectin2 (Homo sapiens), Q6EIG7 (protein) MMQEQQPQSTEKRGWLSLRLWSVAGISIALLSACFIVSCVVTYHFTYGETGKRLSELHSYHSSLTCFSEGTKVPAWGCCPASWKSFGSSCYFISSEEKVWSKSEQNCVEMGAHLVVFNTEAEQNFIVQQLNESFSYFLGLSDPQGNNNWQWIDKTPYEKNVRFWHLGEPNHSAEQCASIVFWKPTGWGWNDVICETRRNSICEMNKIYL",glycan array binding signal (z-score),Fuc(a1-2)Gal,-0.122
same,glycan array binding signal (z-score),Fuc(a1-2)Gal(b1-3)GalNAc,-0.152
same,glycan array binding signal (z-score),[1],-0.162
same,glycan array binding signal (z-score),[2],-0.189
same,glycan array binding signal (z-score),[3],-0.163
same,glycan array binding signal (z-score),[4],-0.13
same,glycan array binding signal (z-score),[5],-0.158
same,glycan array binding signal (z-score),Fuc(a1-2)Gal(b1-3)GlcNAc,-0.127
same,glycan array binding signal (z-score),[6],0.261
same,glycan array binding signal (z-score),[7],-0.103
same,glycan array binding signal (z-score),[8],-0.145
same,glycan array binding signal (z-score),[9],-0.184
same,glycan array binding signal (z-score),[10],-0.095
same,glycan array binding signal (z-score),[11],-0.199
same,glycan array binding signal (z-score),[12],-0.182
same,glycan array binding signal (z-score),[13],-0.128
same,glycan array binding signal (z-score),[14],-0.111
same,glycan array binding signal (z-score),[15],0.104
same,glycan array binding signal (z-score),[16],0.006
same,glycan array binding signal (z-score),[17],-0.181
same,glycan array binding signal (z-score),[18],-0.146
same,glycan array binding signal (z-score),[19],0.975
same,glycan array binding signal (z-score),Fuc(a1-2)Gal(b1-4)Glc,-0.165
same,glycan array binding signal (z-score),Fuc(a1-2)Gal(b1-4)Glc6S,0.189
same,glycan array binding signal (z-score),Fuc(a1-2)Gal(b1-4)GlcNAc,-0.158
same,glycan array binding signal (z-score),[20],-0.145
same,glycan array binding signal (z-score),[21],0.093
same,glycan array binding signal (z-score),[22],0.091
same,glycan array binding signal (z-score),[23],0.039
same,glycan array binding signal (z-score),[24],-0.168
same,glycan array binding signal (z-score),[25],-0.017
same,glycan array binding signal (z-score),[26],-0.168
same,glycan array binding signal (z-score),[27],-0.178
same,glycan array binding signal (z-score),[28],-0.156
same,glycan array binding signal (z-score),[29],-0.054
same,glycan array binding signal (z-score),[30],-0.144
same,glycan array binding signal (z-score),[31],0.311
